Screen size: about 310,000 compounds; about 2,200 (0.71%) showed an effect of 50% or more. Effects have a minus sign here. This is one part of the list.
The compounds below were run against human ether-à-go-go-related gene (hERG) potassium channel (human, UniProt Q12809) (assay: primary screen, population patch clamp on CHO cells stably expressing hERG).
human ether-à-go-go-related gene (hERG) potassium channel, sequence (Q12809 whole entry, looked up): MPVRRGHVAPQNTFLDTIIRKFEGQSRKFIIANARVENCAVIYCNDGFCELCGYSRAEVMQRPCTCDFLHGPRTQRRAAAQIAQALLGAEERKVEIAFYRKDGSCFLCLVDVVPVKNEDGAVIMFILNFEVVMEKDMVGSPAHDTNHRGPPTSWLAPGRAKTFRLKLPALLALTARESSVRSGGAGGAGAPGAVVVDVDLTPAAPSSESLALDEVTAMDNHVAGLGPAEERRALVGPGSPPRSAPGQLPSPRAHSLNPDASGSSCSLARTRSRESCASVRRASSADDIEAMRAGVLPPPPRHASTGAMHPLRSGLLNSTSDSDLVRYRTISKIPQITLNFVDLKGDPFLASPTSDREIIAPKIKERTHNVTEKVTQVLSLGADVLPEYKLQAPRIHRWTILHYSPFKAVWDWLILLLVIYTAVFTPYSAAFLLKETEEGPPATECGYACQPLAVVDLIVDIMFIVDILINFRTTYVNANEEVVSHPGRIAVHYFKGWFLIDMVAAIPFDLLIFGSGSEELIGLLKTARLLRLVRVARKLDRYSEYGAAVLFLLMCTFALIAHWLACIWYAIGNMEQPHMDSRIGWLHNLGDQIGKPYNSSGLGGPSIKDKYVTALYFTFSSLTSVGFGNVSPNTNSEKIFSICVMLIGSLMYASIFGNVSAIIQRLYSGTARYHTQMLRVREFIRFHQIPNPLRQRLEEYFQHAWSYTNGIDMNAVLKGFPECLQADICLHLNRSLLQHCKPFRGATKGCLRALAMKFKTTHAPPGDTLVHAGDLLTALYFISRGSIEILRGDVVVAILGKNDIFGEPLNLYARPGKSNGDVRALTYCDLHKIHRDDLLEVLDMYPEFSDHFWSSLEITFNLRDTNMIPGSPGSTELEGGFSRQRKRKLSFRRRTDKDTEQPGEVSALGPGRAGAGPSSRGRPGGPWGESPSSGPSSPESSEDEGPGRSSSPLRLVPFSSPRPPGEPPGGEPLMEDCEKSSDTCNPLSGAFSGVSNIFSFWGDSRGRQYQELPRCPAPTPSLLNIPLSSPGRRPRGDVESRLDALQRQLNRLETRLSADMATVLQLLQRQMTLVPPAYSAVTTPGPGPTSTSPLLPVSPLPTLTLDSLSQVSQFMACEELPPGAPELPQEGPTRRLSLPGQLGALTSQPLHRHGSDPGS

Question: For `N#Cc1ccc(C2=CC(=O)C[C@H](c3ccc(Cl)cc3)C2)cc1`, which “hERG current change (%, negative = inhibition) at 1uM” value is on record?
Answer: -51.9%

Question: Which “hERG current change (%, negative = inhibition) at 1uM” value does the source give for `CCOC(=O)Cn1c(=NC(=O)c2cccs2)sc2cc(C(=O)OC)ccc21` here?
Answer: 0.0979%

Question: For `Cc1[nH]c2ccccc2c1-c1nc(N)sc1C`, which “hERG current change (%, negative = inhibition) at 1uM” value is on record?
Answer: 16.1%

Question: `CCOc1ccc(C(=O)NC2CCN(C(=O)N3CCCC3)CC2)cc1` was tested. Which “hERG current change (%, negative = inhibition) at 1uM” value did it give?
Answer: 11.4%

Question: Which “hERG current change (%, negative = inhibition) at 1uM” value does the source give for `Cc1ccc(N(CC(=O)N2CCCCCC2)S(C)(=O)=O)cc1Cl` here?
Answer: 13.7%

Question: For `CCOC(=O)C1CCCN(C(=O)/C=C/c2ccc(Cl)cc2)C1` (centres unmarked), which “hERG current change (%, negative = inhibition) at 1uM” value is on record?
Answer: -26.1%

Question: With `CCCOc1ccc(CSc2ncn[nH]2)cc1` as the compound, how does the “hERG current change (%, negative = inhibition) at 1uM” value read?
Answer: -1.78%

Question: How did the “hERG current change (%, negative = inhibition) at 1uM” value turn out when `O=C(c1cccc(NS(=O)(=O)c2cccc(F)c2)c1)N1CCN(c2ccccc2)CC1` was run?
Answer: 6.34%

Question: Which “hERG current change (%, negative = inhibition) at 1uM” value does the source give for `COc1ccc(S(=O)(=O)NN(C)C(=O)c2nn(-c3ccccc3)ccc2=O)cc1` here?
Answer: -9.21%

Question: Which “hERG current change (%, negative = inhibition) at 1uM” value does the source give for `COc1ccccc1-n1nnnc1SCc1ccccc1` here?
Answer: 2.91%

Question: Which “hERG current change (%, negative = inhibition) at 1uM” value does the source give for `C1CCN(c2nc3nonc3nc2N2CCCCC2)CC1` here?
Answer: -1.13%

Question: How did the “hERG current change (%, negative = inhibition) at 1uM” value turn out when `COC(=O)C1=C(C(=O)OC)[C@@H]2N(C)c3ccccc3[C@@]23C[C@@H](C(=O)OC)N(C(C)=O)C3=N1` was run?
Answer: 7.59%

Question: For `COC(=O)c1ccc(OC(=O)CCc2cc(OC)c(OC)c(OC)c2)cc1`, which “hERG current change (%, negative = inhibition) at 1uM” value is on record?
Answer: 7.71%

Question: `Cc1c(C2(O)C(=O)Nc3ccc(F)cc32)c(=O)n(-c2ccccc2)n1C` (centres unmarked) was tested. Which “hERG current change (%, negative = inhibition) at 1uM” value did it give?
Answer: 5.04%

Question: For `O=c1[nH]c(C2CCN(S(=O)(=O)c3ccc([N+](=O)[O-])cc3)CC2)nc2c1nnn2Cc1ccccc1`, which “hERG current change (%, negative = inhibition) at 1uM” value is on record?
Answer: 15.8%

Question: With `O=C(CCNC(=O)c1ccco1)Nc1ccc(N2CCOCC2)cc1` as the compound, how does the “hERG current change (%, negative = inhibition) at 1uM” value read?
Answer: 11.3%

Question: For `COc1cc(/C=C/C(=O)C2C(=O)C=C(C)OC2=O)cc(OC)c1O` (centres unmarked), which “hERG current change (%, negative = inhibition) at 1uM” value is on record?
Answer: 13.5%

Question: With `CC(=O)Nc1ccc(S(=O)(=O)NC2(C(F)(F)F)C(=O)Nc3c2c(=O)[nH]c(=O)n3C)cc1` (centres unmarked) as the compound, how does the “hERG current change (%, negative = inhibition) at 1uM” value read?
Answer: 4.78%

Question: For `O=C(COc1ccc(Cl)cc1)Nc1cccc(S(=O)(=O)NCc2ccco2)c1`, which “hERG current change (%, negative = inhibition) at 1uM” value is on record?
Answer: 5.13%

Question: With `COCCCNc1nc2ccccc2nc1NS(=O)(=O)c1ccc(C)c(C)c1` as the compound, how does the “hERG current change (%, negative = inhibition) at 1uM” value read?
Answer: -1.92%

Question: `COc1cc(/C=N/NS(=O)(=O)c2ccc(C(C)(C)C)cc2)cc([N+](=O)[O-])c1O` was tested. Which “hERG current change (%, negative = inhibition) at 1uM” value did it give?
Answer: 13.6%

Question: With `CCCCN(C)C(=O)c1nc2ccccn2c1CN(C)Cc1csc(C)n1` as the compound, how does the “hERG current change (%, negative = inhibition) at 1uM” value read?
Answer: 11.5%

Question: `O=C(C1CCCN(S(=O)(=O)c2ccc(Br)s2)C1)N1CCN(c2ccccc2)CC1` (centres unmarked) was tested. Which “hERG current change (%, negative = inhibition) at 1uM” value did it give?
Answer: -24.3%

Question: `C[C@@H](O)C1NC(=O)[C@H](CCCCN)NC(=O)c2cc([N+](=O)[O-])cc(F)c2NCCCC[C@@H](C(N)=O)NC1=O` (some centres unmarked) was tested. Which “hERG current change (%, negative = inhibition) at 1uM” value did it give?
Answer: 10.8%

Question: `NC(=O)c1sc2nc(-c3cccnc3)ccc2c1N` was tested. Which “hERG current change (%, negative = inhibition) at 1uM” value did it give?
Answer: 15.8%

Question: `COc1cc(C(=O)Nc2nc3ccc4nc(C)sc4c3s2)cc(OC)c1OC` was tested. Which “hERG current change (%, negative = inhibition) at 1uM” value did it give?
Answer: 4.84%

Question: With `COc1ccc(NS(=O)(=O)c2ccc(C)c(C(=O)NCC(c3ccco3)N3CCCCC3)c2)cc1` (centres unmarked) as the compound, how does the “hERG current change (%, negative = inhibition) at 1uM” value read?
Answer: 8.71%

Question: `Cc1cccc(N2C(=O)NC(=O)/C(=C\c3ccc4c(c3)CCCN4Cc3ccccc3)C2=O)c1` was tested. Which “hERG current change (%, negative = inhibition) at 1uM” value did it give?
Answer: 12.3%

Question: For `CCn1c(=O)n(CC)c2cc(NC(=O)C(C)c3ccccc3)c(Br)cc21` (centres unmarked), which “hERG current change (%, negative = inhibition) at 1uM” value is on record?
Answer: 15.2%

Question: `Cc1ccc(NC(=O)C2CCCN(S(=O)(=O)c3c(C)noc3/C=C/N(C)C)C2)cc1F` (centres unmarked) was tested. Which “hERG current change (%, negative = inhibition) at 1uM” value did it give?
Answer: 2.13%

Question: For `OCC1(c2cc(C(F)(F)F)n[nH]2)CCCCC1`, which “hERG current change (%, negative = inhibition) at 1uM” value is on record?
Answer: 4.63%

Question: With `Cc1cc(C(=O)N2CCN(c3ncccn3)CC2)sc1-c1ccccc1` as the compound, how does the “hERG current change (%, negative = inhibition) at 1uM” value read?
Answer: 1.2%

Question: `Cc1ccc(C2Nc3cccc4cccc(c34)N2)cc1` was tested. Which “hERG current change (%, negative = inhibition) at 1uM” value did it give?
Answer: 7.8%

Question: With `CC(NC(=O)C12CC3CC(CC(C3)C1)C2)C(=O)N/N=C/C1=C(N2CCOCC2)C(=C\c2cccc([N+](=O)[O-])c2)/CC1` (centres unmarked) as the compound, how does the “hERG current change (%, negative = inhibition) at 1uM” value read?
Answer: 7.96%

Question: How did the “hERG current change (%, negative = inhibition) at 1uM” value turn out when `CCN(CC)C(=O)CSc1nc2ccc(NC(=O)CSc3nnc(COc4ccccc4C)n3C)cc2s1` was run?
Answer: -5.55%

Question: How did the “hERG current change (%, negative = inhibition) at 1uM” value turn out when `CCn1nc(C)c(/C=N\NC(=O)c2ccc3c(c2)OCO3)c1C` was run?
Answer: 12.1%

Question: Which “hERG current change (%, negative = inhibition) at 1uM” value does the source give for `COc1cccc(N(CC(=O)Nc2cccnc2)S(C)(=O)=O)c1` here?
Answer: 16.1%

Question: For `CCSc1nc2sc3c(c2c(=O)n1CC)CC(C)(C)OC3`, which “hERG current change (%, negative = inhibition) at 1uM” value is on record?
Answer: 10.1%

Question: How did the “hERG current change (%, negative = inhibition) at 1uM” value turn out when `C/C=C/C=C/C(=O)N1CC2(CC(c3cccc(NC(=O)CCCCC)c3)=NO2)C[C@H]1C(N)=O` (some centres unmarked) was run?
Answer: 7.79%

Question: `Cc1cccc(/C=C/c2onc(C)c2S(=O)(=O)N2CCC(C(=O)N3CCC(C)CC3)CC2)c1` was tested. Which “hERG current change (%, negative = inhibition) at 1uM” value did it give?
Answer: 15.5%

Question: Which “hERG current change (%, negative = inhibition) at 1uM” value does the source give for `Br.Oc1ccc(C2CNCc3sccc32)cc1O` (centres unmarked) here?
Answer: 3%

Question: With `CCC(=O)c1ccc(N2CCN(C(=O)Cc3ccccc3)CC2)c(F)c1` as the compound, how does the “hERG current change (%, negative = inhibition) at 1uM” value read?
Answer: 3.13%

Question: `CC(=O)c1ccc(OCCCC(=O)NCC(c2ccco2)N(C)C)cc1` (centres unmarked) was tested. Which “hERG current change (%, negative = inhibition) at 1uM” value did it give?
Answer: -7%

Question: How did the “hERG current change (%, negative = inhibition) at 1uM” value turn out when `C/C(CC(=O)Nc1ccc2c(c1)OCCO2)=N\NC(=O)c1ccccn1` was run?
Answer: 15.8%

Question: How did the “hERG current change (%, negative = inhibition) at 1uM” value turn out when `CCOc1ccc(N2CC(C(=O)NNC(=O)c3ccc(Br)cc3)CC2=O)cc1` (centres unmarked) was run?
Answer: 10.2%

Question: How did the “hERG current change (%, negative = inhibition) at 1uM” value turn out when `CN(C(=O)CSc1nc2c(c(=O)[nH]1)CCCC2)C1CCCCC1` was run?
Answer: 2.05%

Question: Which “hERG current change (%, negative = inhibition) at 1uM” value does the source give for `CSc1cccc(N2CC(C(=O)N(Cc3nnc(-c4ccccc4Cl)o3)C3CC3)CC2=O)c1` (centres unmarked) here?
Answer: -5.53%

Question: With `O=C(O)CCC(=O)N1N=C(c2ccccc2)CC1c1ccc2nccnc2c1` (centres unmarked) as the compound, how does the “hERG current change (%, negative = inhibition) at 1uM” value read?
Answer: 3.95%

Question: `COc1ccc(CCNC(=O)C23CCC(C)(C(=O)C2Br)C3(C)C)cc1OC` (centres unmarked) was tested. Which “hERG current change (%, negative = inhibition) at 1uM” value did it give?
Answer: 11.3%

Question: With `O=C1CCN(N=Nc2cccc(Cl)c2)N1` as the compound, how does the “hERG current change (%, negative = inhibition) at 1uM” value read?
Answer: 3.87%

Question: With `O=C(COC(=O)c1ccc2c(c1)OCO2)NCc1ccc2c(c1)OCO2` as the compound, how does the “hERG current change (%, negative = inhibition) at 1uM” value read?
Answer: -5.64%

Question: `COc1cc(/C=C/C(=O)Nc2cccc(S(=O)(=O)NC3=NCCCCC3)c2)ccc1OCC#N` was tested. Which “hERG current change (%, negative = inhibition) at 1uM” value did it give?
Answer: 8.06%

Question: `COc1cc2c(cc1NC(=O)CSc1cccc[n+]1[O-])oc1ccccc12` was tested. Which “hERG current change (%, negative = inhibition) at 1uM” value did it give?
Answer: 4.85%

Source: article PMC4336329 (PLoS ONE, 2015)
